# Assay results: the supplement of paper PMC8728848
# The list shows a part of the results.
# Experiments:
# Test in all cases: glycan array binding signal (z-score within array); higher = stronger binding
# Settings in all cases: glycan notation: IUPAC condensed, linker removed
# [1] = biological target: Neu5Ac(a2-6)Gal(b1-4)GlcNAc(b1-2)Man(a1-3)[GlcNAc(b1-2)Man(a1-6)]Man(b1-4)GlcNAc(b1-4)GlcNAc
# Procedure, shortened: (§1)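 From the Consortium for Functional Glycomics database, 3228 arrays were curated, keeping only those whose protein sequence was available. Binding is given as a within-array Z-score averaged across arrays sharing a protein sequence and across linkers. Negative Z-scores can be read as non-binding.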
# [2] = biological target: Neu5Ac(a2-6)Gal(b1-4)GlcNAc(b1-2)Man(a1-3)[GlcNAc(b1-2)Man(b1-4)GlcNAc(b1-2)Man(a1-6)]Man(b1-4)GlcNAc(b1-4)GlcNAc
# Procedure, shortened: as §1
# [3] = biological target: Neu5Ac(a2-6)Gal(b1-4)GlcNAc(b1-2)Man(a1-3)[Man(a1-6)]Man(b1-4)GlcNAc(b1-4)GlcNAc
# Procedure, shortened: as §1
# [4] = biological target: Neu5Ac(a2-6)Gal(b1-4)GlcNAc(b1-2)Man(a1-3)[Neu5Ac(a2-6)Gal(b1-4)GlcNAc(b1-2)Man(a1-6)]Man(b1-4)GlcNAc(b1-4)GlcNAc
# Procedure, shortened: as §1
# [5] = biological target: Neu5Ac(a2-6)Gal(b1-4)GlcNAc(b1-2)Man(a1-3)[Neu5Ac(a2-6)Gal(b1-4)GlcNAc(b1-2)Man(a1-6)]Man(b1-4)GlcNAc(b1-4)[Fuc(a1-6)]GlcNAc
# Procedure, shortened: as §1
# [6] = biological target: Neu5Ac(a2-6)Gal(b1-4)GlcNAc(b1-2)Man(a1-6)Man(b1-4)GlcNAc(b1-4)GlcNAc
# Procedure, shortened: as §1
# [7] = biological target: Neu5Ac(a2-6)Gal(b1-4)GlcNAc(b1-2)Man(a1-6)[Gal(b1-4)GlcNAc(b1-2)Man(a1-3)]Man(b1-4)GlcNAc(b1-4)GlcNAc
# Procedure, shortened: as §1
# [8] = biological target: Neu5Ac(a2-6)Gal(b1-4)GlcNAc(b1-2)Man(a1-6)[GlcNAc(b1-2)Man(a1-3)]Man(b1-4)GlcNAc(b1-4)GlcNAc
# Procedure, shortened: as §1
# [9] = biological target: Neu5Ac(a2-6)Gal(b1-4)GlcNAc(b1-2)Man(a1-6)[Man(a1-3)]Man(b1-4)GlcNAc(b1-4)GlcNAc
# Procedure, shortened: as §1
# [10] = biological target: Neu5Ac(a2-6)Gal(b1-4)GlcNAc(b1-3)Gal(b1-3)GlcNAc
# Procedure, shortened: as §1
# [11] = biological target: Neu5Ac(a2-6)Gal(b1-4)GlcNAc(b1-3)Gal(b1-4)GlcNAc
# Procedure, shortened: as §1
# [12] = biological target: Neu5Ac(a2-6)Gal(b1-4)GlcNAc(b1-3)Gal(b1-4)GlcNAc(b1-3)Gal(b1-4)GlcNAc
# Procedure, shortened: as §1
# [13] = biological target: Neu5Ac(a2-6)Gal(b1-4)GlcNAc(b1-3)Gal(b1-4)[Fuc(a1-3)]GlcNAc(b1-3)Gal(b1-4)[Fuc(a1-3)]GlcNAc
# Procedure, shortened: as §1
# [14] = biological target: Neu5Ac(a2-6)Gal(b1-4)GlcNAc(b1-3)GalNAc
# Procedure, shortened: as §1
# [15] = biological target: Neu5Ac(a2-6)Gal(b1-4)GlcNAc(b1-3)[Neu5Ac(a2-6)Gal(b1-4)GlcNAc(b1-6)]GalNAc
# Procedure, shortened: as §1
# [16] = biological target: Neu5Ac(a2-6)Gal(b1-4)GlcNAc(b1-6)GalNAc
# Procedure, shortened: as §1
# [17] = biological target: Neu5Ac(a2-6)Gal(b1-4)GlcNAc(b1-6)[Gal(b1-3)GlcNAc(b1-3)]Gal(b1-4)Glc
# Procedure, shortened: as §1
# [18] = biological target: Neu5Ac(a2-6)Gal(b1-4)GlcNAc6S
# Procedure, shortened: as §1
# Neu5Ac(a2-6)GalNAc = biological target: Neu5Ac(a2-6)GalNAc
# Procedure, shortened: as §1
# [19] = biological target: Neu5Ac(a2-6)GalNAc(b1-4)GlcNAc
# Procedure, shortened: as §1
# [20] = biological target: Neu5Ac(a2-6)GalNAc(b1-4)GlcNAc6S
# Procedure, shortened: as §1
# [21] = biological target: Neu5Ac(a2-6)GlcNAc(b1-4)GlcNAc
# Procedure, shortened: as §1
# [22] = biological target: Neu5Ac(a2-6)GlcNAc(b1-4)GlcNAc(b1-4)GlcNAc
# Procedure, shortened: as §1
# Neu5Ac(a2-8)Neu5Ac = biological target: Neu5Ac(a2-8)Neu5Ac
# Procedure, shortened: as §1
# [23] = biological target: Neu5Ac(a2-8)Neu5Ac(a2-3)Gal(b1-3)GalNAc(b1-4)[Neu5Ac(a2-8)Neu5Ac(a2-3)]Gal(b1-4)Glc
# Procedure, shortened: as §1
# [24] = biological target: Neu5Ac(a2-8)Neu5Ac(a2-3)Gal(b1-4)Glc
# Procedure, shortened: as §1
# [25] = biological target: Neu5Ac(a2-8)Neu5Ac(a2-3)[Gal(b1-3)GalNAc(b1-4)]Gal(b1-4)Glc
# Procedure, shortened: as §1
# [26] = biological target: Neu5Ac(a2-8)Neu5Ac(a2-3)[GalNAc(b1-4)]Gal(b1-4)Glc
# Procedure, shortened: as §1
# [27] = biological target: Neu5Ac(a2-8)Neu5Ac(a2-8)Neu5Ac
# Procedure, shortened: as §1
# [28] = biological target: Neu5Ac(a2-8)Neu5Ac(a2-8)Neu5Ac(a2-3)Gal(b1-4)Glc
# Procedure, shortened: as §1
# [29] = biological target: Neu5Ac(a2-8)Neu5Ac(a2-8)Neu5Ac(a2-3)[GalNAc(b1-4)]Gal(b1-4)Glc
# Procedure, shortened: as §1
# [30] = biological target: Neu5Ac(a2-8)Neu5Ac(a2-8)Neu5Ac(a2-8)Neu5Ac(a2-3)[GalNAc(b1-4)]Gal(b1-4)Glc
# Procedure, shortened: as §1
# [31] = biological target: Neu5Ac(b2-6)Gal(b1-4)GlcNAc
# Procedure, shortened: as §1
# Neu5Ac(b2-6)GalNAc = biological target: Neu5Ac(b2-6)GalNAc
# Procedure, shortened: as §1
# [32] = biological target: Neu5Ac9Ac(a2-3)Gal(b1-3)GlcNAc
# Procedure, shortened: as §1
# [33] = biological target: Neu5Ac9Ac(a2-3)Gal(b1-4)GlcNAc
# Procedure, shortened: as §1
# [34] = biological target: Neu5Ac9Ac(a2-6)Gal(b1-4)GlcNAc
# Procedure, shortened: as §1
# [35] = biological target: Neu5Gc(a2-3)Gal(b1-3)GlcNAc
# Procedure, shortened: as §1
# [36] = biological target: Neu5Gc(a2-3)Gal(b1-3)[Fuc(a1-4)]GlcNAc
# Procedure, shortened: as §1
# Neu5Gc(a2-3)Gal(b1-4)Glc = biological target: Neu5Gc(a2-3)Gal(b1-4)Glc
# Procedure, shortened: as §1
# [37] = biological target: Neu5Gc(a2-3)Gal(b1-4)GlcNAc
# Procedure, shortened: as §1
# [38] = biological target: Neu5Gc(a2-3)Gal(b1-4)[Fuc(a1-3)]GlcNAc
# Procedure, shortened: as §1
# [39] = biological target: Neu5Gc(a2-6)Gal(b1-4)GlcNAc
# Procedure, shortened: as §1
# Neu5Gc(a2-6)GalNAc = biological target: Neu5Gc(a2-6)GalNAc
# Procedure, shortened: as §1
# [40] = biological target: Neu5Gc(b2-6)Gal(b1-4)GlcNAc
# Procedure, shortened: as §1
binder,measurement,setting,value
"Gal 8 (Homo sapiens), O00214_1 (protein) MMLSLNNLQNIIYNPVIPFVGTIPDQLDPGTLIVIRGHVPSDADRFQVDLQNGSSMKPRADVAFHFNPRFKRAGCIVCNTLINEKWGREEITYDTPFKREKSFEIVIMVLKDKFQVAVNGKHTLLYGHRIGPEKIDTLGIYGKVNIHSIGFSFSSDLQSTQASSLELTEISRENVPKSGTPQLRLPFAARLNTPMGPGRTVVVKGEVNANAKSFNVDLLAGKSKDIALHLNPRLNIKAFVRNSFLQESWGEEERNITSFPFSPGMYFEMIIYCDVREFKVAVNGVHSLEYKHRFKELSSIDTLEINGDIHLLEVRSW",glycan array binding signal (z-score),[1],-0.262
same,glycan array binding signal (z-score),[2],-0.232
same,glycan array binding signal (z-score),[3],-0.656
same,glycan array binding signal (z-score),[4],-0.211
same,glycan array binding signal (z-score),[5],-2.59
same,glycan array binding signal (z-score),[6],-0.223
same,glycan array binding signal (z-score),[7],-0.203
same,glycan array binding signal (z-score),[8],-0.251
same,glycan array binding signal (z-score),[9],-0.252
same,glycan array binding signal (z-score),[10],1.49
same,glycan array binding signal (z-score),[11],0.344
same,glycan array binding signal (z-score),[12],1.24
same,glycan array binding signal (z-score),[13],-0.201
same,glycan array binding signal (z-score),[14],-0.172
same,glycan array binding signal (z-score),[15],-0.231
same,glycan array binding signal (z-score),[16],-0.215
same,glycan array binding signal (z-score),[17],-0.157
same,glycan array binding signal (z-score),[18],-0.264
same,glycan array binding signal (z-score),Neu5Ac(a2-6)GalNAc,-0.217
same,glycan array binding signal (z-score),[19],-0.251
same,glycan array binding signal (z-score),[20],-0.215
same,glycan array binding signal (z-score),[21],-0.224
same,glycan array binding signal (z-score),[22],-0.22
same,glycan array binding signal (z-score),Neu5Ac(a2-8)Neu5Ac,-0.19
same,glycan array binding signal (z-score),[23],-0.942
same,glycan array binding signal (z-score),[24],0.626
same,glycan array binding signal (z-score),[25],-0.28
same,glycan array binding signal (z-score),[26],-0.176
same,glycan array binding signal (z-score),[27],-0.275
same,glycan array binding signal (z-score),[28],-0.135
same,glycan array binding signal (z-score),[29],0.35
same,glycan array binding signal (z-score),[30],-0.167
same,glycan array binding signal (z-score),[31],-0.194
same,glycan array binding signal (z-score),Neu5Ac(b2-6)GalNAc,0.463
same,glycan array binding signal (z-score),[32],0.202
same,glycan array binding signal (z-score),[33],-0.125
same,glycan array binding signal (z-score),[34],-0.272
same,glycan array binding signal (z-score),[35],0.307
same,glycan array binding signal (z-score),[36],-0.233
same,glycan array binding signal (z-score),Neu5Gc(a2-3)Gal(b1-4)Glc,0.13
same,glycan array binding signal (z-score),[37],-0.262
same,glycan array binding signal (z-score),[38],-0.199
same,glycan array binding signal (z-score),[39],-0.197
same,glycan array binding signal (z-score),Neu5Gc(a2-6)GalNAc,-0.229
same,glycan array binding signal (z-score),[40],-0.219
